Some of these densities may be calculated back from excess volumes.
Assay: xn = mol fraction of the nth substance listed
Conditions: 100 kPa

CC(C)O + CCCCCC[n+]1ccn(C)c1.O=S(=O)([O-])C(F)(F)F
x1 = 1
Conditions	mass density [kg/m3]
293.15 K	785.3
303.15 K	776.8
313.15 K	768

CCCCCC[n+]1ccn(C)c1.O=S(=O)([O-])C(F)(F)F + CC(C)O
mass density [kg/m3]
Conditions	x2 = 0	x2 = 0.1282	x2 = 0.2454	x2 = 0.3506	x2 = 0.469	x2 = 0.5728	x2 = 0.6564	x2 = 0.7574	x2 = 0.8422	x2 = 0.9231
293.15 K	1243.6	1224.8	1204	1181.4	1149.8	1114.8	1079.6	1025.2	964.6	–
298.15 K	1239.7	–	–	1177.6	–	1110.7	1075.5	1021.1	960.6	883.1
303.15 K	1235.7	1217	1196.3	–	1141.8	1106.7	1071.6	1017.1	956.7	879
308.15 K	1231.9	1213.2	1192.5	1169.7	1137.9	1102.8	1067.5	1013	952.6	874.9
313.15 K	1228.1	1209.4	1188.6	1165.8	1134	1098.6	1063.3	1008.9	948.4	–

CCCCCC[N+](CC)(CC)CC.O=S(=O)([N-]S(=O)(=O)C(F)(F)F)C(F)(F)F + CC(C)O
mass density [kg/m3]
Conditions	x2 = 0	x2 = 0.096	x2 = 0.2045	x2 = 0.3101	x2 = 0.4056	x2 = 0.4987	x2 = 0.5916	x2 = 0.7088	x2 = 0.8015	x2 = 0.9193
293.15 K	1293.6	–	1266.8	1248.5	1228	1203.1	1171.5	1117.2	1055.4	931.5
298.15 K	1289.4	1277.9	–	–	1223.8	–	1167.1	1112.8	1051	927.1
303.15 K	1285.2	1273.7	1258.4	–	1219.5	1194.5	1162.6	1108.3	1046.5	922.7
308.15 K	1281	1269.5	1254.2	1235.8	–	–	–	1103.8	–	–
313.15 K	1276.9	–	1250	1231.5	1211	1185.9	–	1099.4	1037.5	913.8

CC(C)O + CCCCCC[N+](CC)(CC)CC.O=S(=O)([N-]S(=O)(=O)C(F)(F)F)C(F)(F)F
x1 = 1
Conditions	mass density [kg/m3]
293.15 K	785.3
313.15 K	768

— a compilation of properties of binary mixtures (doi:10.1016/j.jct.2022.106789)
